Results on one molecule are retold here after patent US20210070868A1 (VERTICAL BIO, published 2021).

This assay addresses T1, wild-type decoyMET (extracellular portion of human HGFR/MET: SEMA, PSI, IPT-1 to IPT-4) (human, UniProt P08581 25-932).
T1 construct: Soluble recombinant receptor from HEK-293T cells, purified on HisTrap; also called decoyMET wild type; MET (solid phase in the fusion protein ELISA)
Kind of assay: ELISA, wild-type decoyMET in solid phase, scMvDN30 (0-1000 nM) in liquid phase (FIG. 10B). As to the method: (A) Binding analysis to HGF by ELISA. Left panel, binding of the fusion proteins containing decoyMET^K842E at the N-terminal and scMvDN30 at the C-terminal. Right panel, binding of the fusion proteins containing scMvDN30 at the N-terminal and decoyMET^K842E at the C-terminal. The fusion proteins or decoyMET^K842E (positive control) were in solid phase. Increasing concentrations of HGF were added in liquid phase. HGF binding was detected using a biotinylated anti-HGF antibody. Each point is the mean of values in triplicate±SD. (B) Binding analysis to MET by ELISA. Left panel, binding of the fusion proteins containing decoyMET^K842E at the N-terminal and scMvDN30 at the C-terminal. Right panel, binding of the fusion proteins containing scMvDN30 at the N-terminal and decoyMET^K842E at the C-terminal. Wild-type decoyMET was in solid phase and increasing concentrations of the different fusion proteins were in liquid phase; as positive control scMvDN30 was included in the assay. Antibody binding was detected using an HRP-conjugated anti-human k chain antibody. OD, optical density at 450 nm. Each point is the mean of values in triplicate±SD. […]
Colorimetric assay was quantified by the multi-label plate reader VICTOR-X4 (Perkin Elmer Instruments INC., Whaltman, Mass.).
(In an ELISA, binding on a coated surface is turned into a signal by an enzyme label.)

B1: single chain MvDN30 (anti-HGFR single-chain Fab fragment) (Fab)
chain: DIVLTQSPASLAVSLGQRATISCKASQSVDYDGGSYMSWFQQRPGQPPKLLISAASNLESGIPARFSGSGSGTDFTLNIHPVEEEDVATYYCQQSYEDPLTFGAGTKVEIKRTVAAPSVFIFPPSDEQLKSGTASVVCLLNNFYPREAKVQWKVDNALQSGNSQESVTEQDSKDSTYSLSSTLTLSKADYEKHKVYACEVTHQGLSSPVTKSFNRGECGGSSGSGSGSTGTSSSGTGTSAGTTGTSASTSGSGSGGGGGSGGGGSAGGTATAGASSGSQLQQPGTELVKPGASVKLSCKASGYTFTSYWIHWVKQRPGQGLEWIGEINPSSGRTNYNEKFKNKVTVTVDKSSTTAYMQLSNLTSEDSAVYYCASRGYWGQGTTLTVSSASTKGPSVFPLAPSSKSTSGGTAALGCLVKDYFPEPVTVSWNSGALTSGVHTFPAVLQSSGLYSLSSVVTVPSSSLGTQTYICNVNHKPSNTKVDKKVEPKSCDKTHTTGTRGAAWSHPQFEKGAAWSHPQFEKGAAWSHPQFEKGAAHHHHHH
notes: also called scMvDN30; ScMvDN30
With B1, the binding result is on record as “binds”.
